# Data from PubChem BioAssay AID624296 (National Center for Advancing Translational Sciences (NCATS), 2012).
# The campaign covered roughly 350,000 compounds. About 9,900 (2.8%) were called active. The inconclusive results got no clear call from the source; some entries with a clear call stand among them for comparison. The call rests on the fitted dose curve; in most records, active means well fitted activation curve with a large enough effect; inconclusive means small, poorly fitted or top-dose-only effect; inactive means no such curve, though single readings can be large or run the other way. Potencies of inconclusive entries are left out as doubtful fits.
# Assay: A quantitative high throughput screen for small molecules that induce DNA re-replication in MCF 10a normal breast cells. Further: nearly all actives have a fitted effect of over 50% in size. On activity, positive = re-replication: % of control where 0% means no effect.
# Settings: MCF 10A DNA re-replication, Hoechst nuclear intensity, 48 h; activity, positive = re-replication: at 46.1 µM (top of the series)
# Potency means the concentration at half of the fitted maximal effect; tags describe the fitted curve by direction and shape.
Compound,Potency,"activity, positive = re-replication"
CCOc1ccccc1CNC(=O)c1cc2oc3ccccc3c2n1C,active: 14.6 µM,–
Cc1ccc(NC(=O)c2ccoc2C)cc1C,"inconclusive [activator, partial curve, poor fit]",–
CC1CCC(NC(=O)CCS(=O)(=O)c2ccc3c(c2)oc(=O)n3C)CC1 (stereo not drawn),inactive,–
CC(C)CCN1CCC(C)(NC(=O)c2ccccc2)C1=O (stereo not drawn),"inconclusive [activator, partial curve, poor fit]",–
COc1ccc(Nc2oc(-c3ccco3)nc2S(=O)(=O)c2ccc(F)cc2)cc1,active: 14.6 µM,–
COc1ccc(C2CC(=O)N(CC(=O)NCC3CCCO3)c3ccccc3S2)cc1OC (stereo not drawn),inactive,–
COc1ccc([C@H]2CC(=O)C=C(/C=C/Cc3ccccc3)C2)cc1,"inconclusive [activator, single point]",–
N#CCc1ccc(NC(=O)c2ccc(CN3CCc4ccccc4C3)cc2)cc1,"inconclusive [activator, partial curve, poor fit]",–
O=C(CCc1ccccc1)NNC(=S)NC(=O)c1ccccc1,active: 3.26 µM,–
O=C(/C=N/NC(=O)c1ccc(Cl)cc1Cl)c1ccccc1,inactive,–
O=C(NNC1=NCCCCC1)Nc1ccc(Cl)cc1,"inconclusive [activator, full curve, poor fit]",–
CCCCC(O)(CCCC)C(=O)NN(C(=O)OC)c1ccccc1,inactive,–
COc1cc2c(cc1OC)C1(NCC2)C(=O)Nc2ccccc21 (stereo not drawn),inactive,–
Cc1cc(C)nc(N2CCCC(C(=O)NCc3cccs3)C2)n1 (stereo not drawn),inactive,–
OC(COc1ccc2cc(Br)ccc2c1)CN1CCN(c2ccccn2)CC1 (stereo not drawn),"inconclusive [activator, single point]",–
CCOC(=O)c1ccc(NC(=O)CC2Sc3ncnn3C2=O)cc1 (stereo not drawn),"inconclusive [activator, single point]",–
COc1ccc(/C(C)=N/NC(=O)c2cccc(S(=O)(=O)N3CCCC3)c2)c(O)c1,"inconclusive [activator, full curve, poor fit]",–
O=C(COC(=O)C1CC1)NC(=O)c1ccccc1,inactive,–
COc1ccccc1N1CCN(C(=O)c2cccc3c(=O)c(C)c(-c4ccccc4)oc23)CC1,"inconclusive [activator, single point]",–
COc1ccccc1N1C(=O)Cc2ccccc2C1=O,inactive,–
CC(=O)Nc1ccc(Nc2cc(N3CCOCC3)c3nonc3c2[N+](=O)[O-])cc1,"inconclusive [activator, full curve, poor fit]",–
CC1CCCCN1C(=O)c1cc2nc(-c3ccccc3)cc(-c3ccccc3)n2n1 (stereo not drawn),"inconclusive [activator, partial curve, poor fit]",–
O=C(N/C(=C\c1ccc([N+](=O)[O-])cc1)C(=O)N1CCCCC1)c1ccccc1,inactive,–

Compound,Potency,"activity, positive = re-replication"
CCOC(=O)C1CCCN(C2=C(NS(=O)(=O)c3ccc(Br)cc3)C(=O)c3ccccc3C2=O)C1 (stereo not drawn),"inconclusive [activator, single point]",–
O=C(/C=C/c1ccccc1[N+](=O)[O-])c1ccccc1Br,"inconclusive [activator, full curve]",–
CCC(C)(C)n1nnnc1CN1CCN(c2nc3ccc(C)cc3cc2C#N)CC1,"inconclusive [activator, partial curve, poor fit]",–
CC(C)(c1ccccc1)c1ccc(OCCn2cnc3ccccc3c2=O)cc1,"inconclusive [activator, single point]",–
O=CN/C=C/c1cc(O)ccc1O,"inconclusive [activator, single point]",–
CCOC(=O)C(C)Sc1ncc(OC)c(Sc2ccc(Cl)cc2)n1 (stereo not drawn),"inconclusive [activator, partial curve, poor fit]",–
CCOC(=O)N1CCN(C(=O)c2cn(C)c3ccc(S(=O)(=O)N4CCOCC4)cc3c2=O)CC1,"inconclusive [activator, single point]",–
COc1ccccc1/C=C/C=N/NC(=O)CCn1cnc2ccccc21,"inconclusive [activator, partial curve]",–
O=C1NC2(CCSC2)C(=O)N1CC(=O)N(Cc1ccccc1)C1CCS(=O)(=O)C1 (stereo not drawn),inactive,–
Cc1cc(OCCCCCNCCO)ccc1Cl,"inconclusive [activator, partial curve]",–
COc1ccc(C(=O)NCCn2cc(SCC(=O)NCC3CCCO3)c3ccccc32)cc1OC (stereo not drawn),inactive,–
C=CCNC(=O)/C(C#N)=C/c1ccc(C(=O)O)cc1,"inconclusive [activator, partial curve, poor fit]",–
CCOC(=O)C1Nc2c(F)cc(C)cc2C2c3ccccc3CC12 (stereo not drawn),"inconclusive [activator, single point]",–
Cc1nc(NC(=O)CCc2ccccc2)sc1C,"inconclusive [activator, partial curve, poor fit]",–
O=C(CCN1C(=O)COc2ccccc21)NCc1cccnc1,"inconclusive [activator, partial curve, poor fit]",–
COc1ccc(CNC(=O)c2cc(C3CC3)nc3c2cnn3C(C)C)cc1,inactive,–
N#Cc1ccc(COC(=O)CSc2nnc(C3CCCCC3)n2N)cc1,"inconclusive [activator, partial curve, poor fit]",–
Cc1ccccc1CN1CCN(C(=O)c2ccc(S(=O)(=O)NCc3ccco3)cc2)CC1,"inconclusive [activator, single point]",–
O=C(NC1CCCCCC1)C1c2ccccc2C(=O)N1Cc1ccco1 (stereo not drawn),inactive,–
CO/N=C/C(=N\Nc1ccc(OC)cc1)C(=O)c1ccc(F)cc1,"inconclusive [activator, single point]",–
CCCCN(C)CCNC(=O)CCn1nc(-c2ccc(Cl)cc2)ccc1=O,inactive,–
O=C(Nc1cccc(S(=O)(=O)Nc2ccc(SC(F)F)cc2)c1)C1CCC1,"inconclusive [activator, partial curve, poor fit]",–
O=C(CSc1nnc(SCc2ccccc2Cl)s1)N/N=C/c1c[nH]c2ccccc12,"inconclusive [activator, single point]",–

Compound,Potency,"activity, positive = re-replication"
CNC(=O)/C(C#N)=C/c1ccc(-c2nc3ccccc3s2)o1,"inconclusive [activator, single point]",–
COc1c(Cl)cc(Cl)cc1CNCc1ccccc1,"inconclusive [activator, partial curve, poor fit]",–
C=CCOC(=O)C1=C(C)NC(SCC)=C(C#N)C1c1ccc(Cl)cc1 (stereo not drawn),active: 23.1 µM,–
Cc1[nH][nH]c(=O)c1C(c1c(C)[nH][nH]c1=O)c1cn(Cc2ccc(F)cc2)c2ccccc12,"inconclusive [activator, partial curve]",–
O=C(CCCN1C(=O)/C(=C/c2cccs2)SC1=S)Nc1ccc(O)cc1,"inconclusive [activator, single point]",–
Cc1cc(SCC(=O)N(CC(C)C)c2c(N)n(CC(C)C)c(=O)[nH]c2=O)nc2ccccc12,inactive,–
CSC1=N/C(=C\c2ccccc2F)C(=O)S1,"inconclusive [activator, single point]",–
Oc1ccc(-c2n[nH]c(=S)n2-c2ccc3c(c2)OCCO3)c(O)c1,"inconclusive [activator, full curve]",–
Cc1ccc2cc(C#N)c(N3CCCN(S(=O)(=O)c4ccccc4)CC3)nc2c1,–,inactive: 250% [at 0.0737 µM]
Cc1ccc2nc(Cl)c(C3CC(c4ccco4)=NN3C(=O)CCCC(=O)O)cc2c1 (stereo not drawn),inactive,–
COC(=O)c1ccccc1NC(=O)CCS(=O)(=O)c1cc2c(cc1C)NC(=O)CO2,inactive,–
O=C(O)C(F)=C1c2ccccc2-c2ccccc21,"inconclusive [activator, single point]",–
Cn1c2ccccc2n2c(=O)c(Cl)c(-c3ccccc3)c(C#N)c12,"inconclusive [activator, full curve, poor fit]",–
CCOc1cc(C(=O)Nc2cc3c(cc2N2CCOCC2)n(C)c(=O)n3C)cc(OCC)c1OCC,"inconclusive [activator, partial curve, poor fit]",–
Cc1ccc(CSc2nc3ccccc3c(=O)n2C)cc1,inactive,–
CCc1ccc(CN(C)C(=O)c2cccc(S(=O)(=O)Nc3ccccc3OC)c2)cc1,"inconclusive [activator, partial curve, poor fit]",–
O=C(CN1CCN(S(=O)(=O)N2CCCCC2)CC1)Nc1ccc(Cl)c(Cl)c1,"inconclusive [activator, single point]",–
CC(CC(=O)NCCc1ccc(Cl)cc1)S(=O)(=O)c1ccc2c(c1)NC(=O)CO2 (stereo not drawn),inactive,–
CC1CCCN(C(=O)c2ccc(S(=O)(=O)N3CCC(c4nc5ccccc5s4)CC3)cc2)C1 (stereo not drawn),"inconclusive [activator, partial curve, poor fit]",–
COc1ccccc1NC(=S)N1CCN(c2nc(-c3ccccc3)cs2)CC1,"inconclusive [activator, partial curve, poor fit]",–
Cc1cc(C)c(C(=O)CN2C(=O)NC3(CCCCCC3)C2=O)cc1C,"inconclusive [activator, single point]",–
Cc1cc(N/N=C/c2ccc(F)cc2)nc(-n2nc(C)cc2C)n1,"inconclusive [activator, single point]",–
